Experimental data published in patent publication US6350430B1, “Melanocortin receptor ligands and methods of using same” (Lion Bioscience Science AG, priority 1997, dated 2002).
Values joined by “and” are separate entries in the source; they are usually repeats but may differ in a detail not shown here. Identical values can stand only once. For some assays here: Not every detail of the peptide structures is certain; ends, links or a residue may be inferred. For some assays here: At least one structure is not confirmed: it was looked up by name or label, or the drawing left a doubt. Where a SMILES comes first, the peptide text is derived from it. [ ]: non-standard residue; d: D form. The star is where a group is joined. dPhe(4-Cl) = N[C@H](Cc1ccc(Cl)cc1)C(=O)O; dPhe(4-I) = N[C@H](Cc1ccc(I)cc1)C(=O)O; 2Nal = N[C@@H](Cc1ccc2ccccc2c1)C(=O)O; d2Nal = N[C@H](Cc1ccc2ccccc2c1)C(=O)O; Fmoc = O=C(OCC1c2ccccc2-c2ccccc21)*; Cha = N[C@@H](CC1CCCCC1)C(=O)O; d2Thi = N[C@H](Cc1cccs1)C(=O)O; Nle = CCCC[C@H](N)C(=O)O

Legend:
[1] = biological target: T1, MC receptor in mouse B16 cells (Mus musculus, UniProt Q01727); assay: MC receptor binding activity in mouse B16 cells; conditions: individual tetrapeptides
T1 construct: endogenous in cells; host or cells: mouse B16 cells
From the text: The 36 peptides were screened for MC receptor binding activity in rat brain and in mouse B16 cells.

TNF-α = assay: Reduction of lipopolysaccharide-induced tumor necrosis factor levels in mice; format: in vivo; conditions: plasma TNF-α 90 minutes after LPS 5 mg/kg IP, vs saline controls
BALB/c mice = assay: Reduction of arachidonic acid-induced ear swelling in mice; format: in vivo; conditions: 100 μg/mouse IP 30 minutes before arachidonic acid; measured at 60 minutes

T1 sequence (Q01727 whole entry): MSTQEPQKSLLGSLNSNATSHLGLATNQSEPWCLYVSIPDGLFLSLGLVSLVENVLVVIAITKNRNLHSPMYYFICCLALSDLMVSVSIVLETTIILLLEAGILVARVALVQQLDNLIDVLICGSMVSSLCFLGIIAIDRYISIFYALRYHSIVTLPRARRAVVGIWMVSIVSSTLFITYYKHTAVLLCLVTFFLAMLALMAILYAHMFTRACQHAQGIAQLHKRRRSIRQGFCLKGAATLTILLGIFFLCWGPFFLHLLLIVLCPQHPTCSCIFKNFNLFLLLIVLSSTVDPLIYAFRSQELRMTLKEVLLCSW

SMILES	IC50 [1] [nM]	also measured
CC(=O)N[C@@H](Cc1c[nH]cn1)C(=O)N[C@H](Cc1ccc(Cl)cc1)C(=O)N[C@@H](CCCNC(=N)N)C(=O)N[C@H](Cc1ccc2ccccc2c1)C(N)=O [Ac—H-(pCl-f)-R-(D-Nal)-NH2, Ac-His-(pCl-f)-Arg-(D-Nal)-NH2] (Ac-H[dPhe(4-Cl)]R[d2Nal]-NH2)	19	–
CC(=O)NCCCC[C@H](NC(=O)OCC1c2ccccc2-c2ccccc21)C(=O)N[C@H](Cc1cccs1)C(=O)N[C@@H](CCCNC(=N)N)C(=O)N[C@@H](Cc1ccc2ccccc2c1)C(N)=O [Ac-(αFmLys)-(D-Thi)-R-(Nal)-NH2] (Fmoc-K(Ac)[d2Thi]R[2Nal]-NH2)	> 4000	–
CC(=O)NCCCC[C@H](NC(=O)OCC1c2ccccc2-c2ccccc21)C(=O)N[C@@H](CCCNC(=N)N)C(=O)N[C@@H](CCCNC(=N)N)C(=O)N[C@@H](Cc1ccc2ccccc2c1)C(N)=O [Ac-(αFmLys)-R-R-(Nal)-NH2] (Fmoc-K(Ac)RR[2Nal]-NH2)	1420	–
CC(=O)NCCCC[C@H](NC(=O)OCC1c2ccccc2-c2ccccc21)C(=O)N[C@H](Cc1ccc(Cl)cc1)C(=O)N[C@@H](CCCNC(=N)N)C(=O)N[C@@H](Cc1ccc2ccccc2c1)C(N)=O [Ac-(αFmLys)-(pCl-f)-R-(Nal)-NH2] (Fmoc-K(Ac)[dPhe(4-Cl)]R[2Nal]-NH2)	41	–
CCCC[C@H](NC(C)=O)C(=O)N[C@@H](CCC(N)=O)C(=O)N[C@@H](Cc1c[nH]cn1)C(=O)N[C@H](Cc1ccc(I)cc1)C(=O)N[C@@H](CCCNC(=N)N)C(=O)N[C@H](Cc1c[nH]c2ccccc12)C(=O)NCC(N)=O [HP 467, Ac-Nle-Gln-His-(p(I)-D-Phe)-Arg-(D-Trp)-Gly-NH2] (Ac-[Nle]QH[dPhe(4-I)]R[dW]G-NH2)	–	Reduction in TNF levels (TNF-α; 30 μg/mouse): 3%; Reduction in TNF levels (TNF-α; 150 μg/mouse): 78%; Reduction in TNF levels (TNF-α; 300 μg/mouse): 81%; Reduction in arachidonic acid-induced ear swelling (BALB/c mice): 81% and 82%
CC(=O)NCCCC[C@H](NC(=O)OCC1c2ccccc2-c2ccccc21)C(=O)N[C@@H](CCCNC(=N)N)C(=O)N[C@@H](CC1CCCCC1)C(=O)N[C@H](CCCNC(=N)N)C(N)=O [Ac-(αFmLys)-R-(L-Cha)-r-NH2] (Fmoc-K(Ac)R[Cha][dR]-NH2)	185	–
CC(=O)N[C@@H](Cc1c[nH]cn1)C(=O)N[C@H](Cc1ccc(Cl)cc1)C(=O)N[C@@H](CCCNC(=N)N)C(=O)N[C@@H](Cc1ccc2ccccc2c1)C(N)=O [AC—H-(pcl-f)-R-(Nal)-NH2] (Ac-H[dPhe(4-Cl)]R[2Nal]-NH2)	68	–
CC(=O)NCCCC[C@H](NC(=O)OCC1c2ccccc2-c2ccccc21)C(=O)N[C@@H](CCCNC(=N)N)C(=O)N[C@@H](CC1CCCCC1)C(=O)N[C@@H](Cc1ccc2ccccc2c1)C(N)=O [Ac-(αFmLys)-R-(L-Cha)-(Nal)-NH2] (Fmoc-K(Ac)R[Cha][2Nal]-NH2)	1140	–
